Measured values: patent publication US9974800B2 (priority 2014, dated 2018)

Tested on: Primary Human Macrophage Cells
Protocol: Primary human macrophage cells were seeded at 1×10^5 cells/well in 100 μl 10% RPMI 1640 medium (Biocoat collagen I-coated 96 well plates). The next day, the medium was removed and 100 μl medium containing different concentration of drugs was added. 48 h post treatment, cytotoxicity was measured using Dojindo's Cell Counting Kit-8 (CCK-8), which utilizes Dojindo's highly water-soluble tetrazolium salt (WST). WST-8 produces a water-soluble formazan dye upon reduction in the presence of an electron mediator. The viability was calculated with regard to the untreated cell control, which was set to 100% viability.
The Table below provides a listing of the concentration of drugs and drug combinations tested and their effect on primary human macrophage cell toxicity.

With CC[C@H]1OC(=O)[C@H](C)[C@@H](O[C@H]2C[C@@](C)(OC)[C@@H](O)[C@H](C)O2)[C@H](C)[C@@H](O[C@@H]2O[C@H](C)C[C@H](N(C)C)[C@H]2O)[C@](C)(OC)C[C@@H](C)C(=O)[C@H](C)[C@@H](O)[C@]1(C)O [Clarithromycin] the “Cytotoxic to Primary Human Macrophage Cells?” value (“Cytotoxic” for short) (60 μM) was “No”, the “Cytotoxic” value (75 μM) was “No” and the “Cytotoxic” value (90 μM) was “No”. For the same compound, the “Cytotoxic” value (120 μM) was “No”, the “Cytotoxic” value (150 μM) was “No” and the “Cytotoxic” value (180 μM) was “No”. For the same compound, the “Cytotoxic” value (210 μM) was “No”, the “Cytotoxic” value (240 μM) was “Yes” and the “Cytotoxic” value (270 μM) was “Yes”. The “Cytotoxic” value (300 μM) was “Yes”, the “Cytotoxic” value (330 μM) was “Yes” and the “Cytotoxic” value (360 μM) was “Yes”.
With CC(C)/N=c1\cc2n(-c3ccc(Cl)cc3)c3ccccc3nc-2cc1Nc1ccc(Cl)cc1 [Clofazamine, Clofazimine] the “Cytotoxic” value (6 μM) was “No”, the “Cytotoxic” value (7 μM) was “No” and the “Cytotoxic” value (8 μM) was “No”. The “Cytotoxic” value (9 μM) was “No”.
O=c1[nH]c(=O)n(C2CC(O)C(CO)O2)cc1/C=C/Br (stereo not drawn) [Brivudine, (E)-5-(2-bromovinyl)-2-deoxyuridine] was tested, and the “Cytotoxic” value (90 μM) was “No”, the “Cytotoxic” value (120 μM) was “No” and the “Cytotoxic” value (150 μM) was “No”. The “Cytotoxic” value (180 μM) was “No”, the “Cytotoxic” value (210 μM) was “No” and the “Cytotoxic” value (240 μM) was “No”. For the same compound, the “Cytotoxic” value (270 μM) was “No”, the “Cytotoxic” value (300 μM) was “Yes” and the “Cytotoxic” value (330 μM) was “Yes”. For the same compound, the “Cytotoxic” value (360 μM) was “Yes”.
For CO[C@H]1/C=C/O[C@@]2(C)Oc3c(C)c(O)c4c(c3C2=O)C2=NC3(CCN(CC(C)C)CC3)NC2=C(NC(=O)/C(C)=C\C=C\[C@H](C)[C@H](O)[C@@H](C)[C@@H](O)[C@@H](C)[C@H](OC(C)=O)[C@@H]1C)C4=O [Rifabutin], the “Cytotoxic” value (30 μM) was “No”, the “Cytotoxic” value (45 μM) was “No” and the “Cytotoxic” value (60 μM) was “No”. The “Cytotoxic” value (75 μM) was “Yes”, the “Cytotoxic” value (90 μM) was “Yes” and the “Cytotoxic” value (120 μM) was “Yes”. The “Cytotoxic” value (150 μM) was “Yes”, the “Cytotoxic” value (180 μM) was “Yes” and the “Cytotoxic” value (210 μM) was “Yes”. For the same compound, the “Cytotoxic” value (240 μM) was “Yes”, the “Cytotoxic” value (270 μM) was “Yes” and the “Cytotoxic” value (300 μM) was “Yes”. The “Cytotoxic” value (330 μM) was “Yes” and the “Cytotoxic” value (360 μM) was “Yes”.
O=C(NCc1ccncc1)C12CC3CC(C1)CC(c1ccc(Cl)cc1)(C3)C2 [ABC294640, 3-(4-chlorophenyl)-adamantane-1-carboxylic acid (pyridin-4-ylmethyl)amide] was tested, and the “Cytotoxic” value (2.5 μM) was “No”, the “Cytotoxic” value (5.0 μM) was “No” and the “Cytotoxic” value (10 μM) was “No”. For the same compound, the “Cytotoxic” value (20 μM) was “Yes”, the “Cytotoxic” value (40 μM) was “Yes” and the “Cytotoxic” value (60 μM) was “Yes”. For the same compound, the “Cytotoxic” value (80 μM) was “Yes” and the “Cytotoxic” value (100 μM) was “Yes”.

Where two headings read alike, the source gives them in different places.
